# According to PubChem BioAssay (NCI):
# “And” between values parts separate entries of the source, which are not always exact repeats. Equal values may be shown once.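 96-well plates; 48 h exposure; 5 concentrations. Endpoints by linear interpolation between flanking doses. Not reached: highest tested concentration assigned. GI50: concentration for 50% inhibition of growth. TGI denotes the concentration required for complete inhibition of growth.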 Square brackets hold non-standard residues; d marks the D form. Peptide text beside a SMILES is read from it. * marks the point of attachment. hSer = N[CH](CCO)C(=O)O; Boc = CC(C)(C)OC(=O)*
# Test system: NCI-H322M lung
# Test: inhibition of tumour cell growth, NCI panel, 48 h
Structure (SMILES),GI50,TGI
Cn1cc(-c2cc3c(Nc4ccc(CC(=O)Nc5cc(C(C)(C)C)on5)cc4)ncnc3[nH]2)cn1,0.637 µM and 0.422 µM,3.13 µM and 2.7 µM
C[C@]12CC[C@H](O)CC1=CC[C@@H]1[C@@H]2CC[C@]2(C)C(=O)/C(=C/c3cccc(OCCCn4ccnc4)c3)C[C@@H]12,50.7 µM,> 100 µM
COc1ccc(CN2C(=O)CCC/C=C\[C@H]2CI)cc1,–,25.9 µM
COc1ccc(C(CC(=O)c2ccccc2)C(C(=O)c2ccccc2)C(c2ccc(OC)cc2)C2C(=O)NC(=O)NC2=O)cc1 (stereo unspecified),63.9 µM,> 100 µM
COCCC(NC(=O)C(CC(C)C)NC(=O)OC(C)(C)C)C(N)=O (stereo not drawn) (Boc-Leu-[hSer](Me)-NH2; configuration not given here),–,> 100 µM
Cc1cccc(C)c1NC(=O)CCC(=O)NNC(=O)c1cc(O)c2ccccc2c1,–,> 100 µM
CCCCCCC1CCC2CCCC(C)N12 (stereo unspecified),–,> 100 µM
Cc1c(Cl)ccc2c1NC(=O)C2(O)CC(=O)c1ccc(Cl)cc1Cl (stereo unspecified),–,> 50 µM
COc1ccc(-c2nc(-c3nc4ccc(F)cc4[nH]3)cc3c2[nH]c2ccccc23)cc1,2.77 µM,8.78 µM
COc1ccc(/C=C2/CN(C(=O)c3ccccc3F)C/C(=C\c3ccc(OC)cc3)C2=O)cc1,20.8 µM,84.6 µM
OCC(O)CC[CH2][Sn]([c]1ccccc1)([c]1ccccc1)[c]1ccccc1 (stereo unspecified),11.1 µM,23.1 µM
O=C1N[C@H]2c3c(Cl)sc(Cl)c3C(=O)[C@H]2O1,–,46.8 µM
COc1cc(OC)cc(N2CCC(c3c(N)nc(N)nc3Cl)CC2)c1,–,> 100 µM
C/C(=N\Nc1nc2cc(C)ccc2s1)c1ccccn1,–,41.1 µM
COc1cc(-c2c3c(cn2S(=O)(=O)c2ccccc2)-c2nc(N)sc2CC3)cc(OC)c1OC,7.45 µM,> 100 µM
COc1ccc2nc3ccc(OC)cc3c(S(=O)Cc3ccc([N+](=O)[O-])cc3)c2c1 (stereo unspecified),–,33.5 µM
C=C1C(=O)O[C@@H]2C[C@]3(C)[C@@H](C[C@H]12)[C@](C)(O)CC[C@@H]3O,–,> 100 µM
COC(=O)c1cnc2nc(N3CCOCC3)[nH]n2c1=O,–,> 100 µM
CCOC(=O)c1ccc(NC2Oc3cc4c(cc3C(c3cc(OC)c(OC)c(OC)c3)C2C)OCO4)cc1 (stereo unspecified),–,> 100 µM
N#CI1OC(=O)c2ccccc21,–,> 100 µM
Cc1cc(-c2ccc(C(=O)C(Cl)(Cl)Cl)[nH]2)on1,–,> 100 µM
O=C1OCC(c2ccc(O)c(O)c2)=C1c1cc(O)c(O)c(O)c1,29.2 µM,84.6 µM
O=S(=O)(c1cccc(C(F)(F)F)c1)N1c2ccccc2-n2cccc2C1c1cccnc1 (stereo unspecified),–,> 72.2 µM

Structure (SMILES),GI50,TGI
COC1/C=C\C=C(/C)C(=O)NC2=CC(=O)C(NCCCl)=C(CC(C)CC(OC)C(O)C(C)/C=C(/C)C1OC(N)=O)C2=O (stereo unspecified),–,16.3 µM
COc1ccc2c(O)c3[n+](cc2c1OC)CCc1cc2c(cc1-3)OCO2,–,> 100 µM
CO/C(=N\N=C(/C)C(F)(F)F)c1ccncc1,–,> 100 µM
O=c1c2cc([N+](=O)[O-])ccc2n2n1Cc1ccccc1CC2,–,> 100 µM
COc1ccc(-c2cc3c4c(nc5ccccc5c4c2)CC(c2cc(OC)c(OC)c(OC)c2)O3)cc1 (stereo unspecified),3.02 µM,> 100 µM
COc1cc2c(-c3nc4cc(Cl)c(F)cc4s3)cc(=O)oc2c(C)c1OC,1.84 µM,3.48 µM
O=C(NNc1nc2cc(F)ccc2n2c(CN3CCOCC3)ccc12)c1ccccc1,0.276 µM,2.62 µM
Nc1nc2ncn(CCO)c2c(=O)[nH]1,–,> 100 µM
O=C(O)CSc1n[nH]c(/C=C/c2ccccc2)n1,–,> 100 µM
COc1ccc(C2C3=C(NC(=O)C2C#N)c2ccc4ccccc4c2OCC3)cc1 (stereo unspecified),34.9 µM,> 100 µM
CC1(C)CCC(S(=O)(=O)c2ccc3c(c2)/C(=N\O)c2cc(S(=O)(=O)N4CCC(O)(c5cccc(C(F)(F)F)c5)CC4)ccc2-3)CC1,0.0787 µM,0.865 µM
CCOC(=O)c1nc2c3c(ncn2n1)Oc1c(c(-c2ccccc2)nn1-c1ccccc1)C3c1ccc(OC)c(OC)c1 (stereo unspecified),–,> 100 µM
Cc1nc2sc(C(=O)Nc3cccc4ccccc34)c(N)c2cc1C(C)O (stereo unspecified),1.21 µM,> 50 µM
O=C(CC12CC3CC(CC(C3)C1)C2)NCCOCCOCCNC(=O)c1cc2c(o1)C(=O)c1ccccc1C2=O,1.16 µM,2.42 µM
CCCCOC1CC2(c3ccc(OC)cc3)C(=O)c3ccccc3N2O1 (stereo unspecified),–,> 100 µM
O=C1Nc2ccccc2C(=O)OC(Cc2ccccc2)=Nc2ccccc21,–,> 100 µM
Oc1c(Cl)c2nccnc2c2ccccc12,–,> 100 µM
O=c1cnn(C2OC(CO)C(O)C(F)C2O)c(=O)[nH]1 (stereo unspecified),–,> 100 µM
C[N+]1(C)C2Cc3ccccc3C1Cc1ccccc12,–,> 100 µM
O=C1Nc2ccc(Cl)cc2/C1=C\c1c(-c2ccc(F)cc2)nc2ccccn12,3.69 µM,19.6 µM
C=C/C(C)=C/[C@H](C)C(=O)C[C@H](O)CC1CC(=O)NC(=O)C1,–,> 100 µM
O=c1[nH]cnc2c1nnn2CCCn1nnc2c(=O)[nH]cnc21,–,> 100 µM
CN(C)[C@@H]1C(=O)C(C(N)=O)=C(O)[C@@]2(O)C(=O)C3=C(O)c4c(O)cccc4C[C@H]3C[C@@H]12,–,6.64 µM

Structure (SMILES),GI50,TGI
Cn1ncc2c(Nc3ccc(Br)cc3)nc(Nc3ccc(Br)cc3)nc21,3.93 µM,17.8 µM
COC[C@H]1C(=O)NCC(=O)N2NCCC[C@H]2C(=O)N(O)[C@H](C)C(=O)O[C@@H](C(C)C)[C@H](NC(=O)[C@](C)(O)[C@]2(O)CC[C@@H](CC(C)C)[C@H](C)O2)C(=O)N2NCCC[C@@H]2C(=O)N1O,0.0116 µM,0.0246 µM
O=C(c1ccccc1)c1ccc(-c2ccc(O)cc2)cc1,4.04 µM,51.1 µM
Fc1cccc(F)c1C1SCC2=Nc3ccccc3CN21 (stereo unspecified),–,> 100 µM
CCC(=O)Sc1ccccc1C(=O)Nc1ccc(Cl)cc1,18.1 µM,78.7 µM
COc1c2nc(CCl)n(C)c(=O)c2c(OC)c2c(=O)n(C)c(CCl)nc12,–,8.49 µM
COc1cc(OC)c(-c2cc(=O)c3c(OC)c(OC)c(OC)c(OC)c3o2)cc1OC,–,> 100 µM
Cc1ncc([N+](=O)[O-])n1CCN(C)CCCCn1ccnc1[N+](=O)[O-],–,> 100 µM
OCCN1CCN(CCCN2c3ccccc3Sc3ccc(C(F)(F)F)cc32)CC1,6.47 µM and 12.9 µM and 14 µM,13.2 µM and 27.6 µM and 31 µM
CN(C)c1c(Cl)c(=O)oc2c1ccc1nc(-c3ccccc3)sc12,–,> 100 µM
O=c1cc2n(c(=O)[nH]1)C1OC(C(O)C1O)[C@@H]2CCO (stereo partly specified),–,> 100 µM
Cc1c(/C=C2\CC/C(=C\c3[nH]c(C(=O)OC(C)(C)C)c(C)c3C)C2=O)[nH]c(C(=O)OC(C)(C)C)c1C,–,> 100 µM
CCCCN(CC)C(=O)C(=O)C1C(=O)Nc2ccccc2S1=O (stereo unspecified),–,> 100 µM
O=C1C(=O)c2ccc(Br)cc2-c2cc(Br)ccc21,25.9 µM,> 100 µM
O=[N+]([O-])c1ccccc1S(=O)c1ccccc1 (stereo unspecified),–,> 100 µM
c1ccc(COc2ccc(C[P+](c3ccccc3)(c3ccccc3)c3ccccc3)cc2)cc1,–,10.8 µM
Cc1cc(Br)c(N2C3=C(CC4=C2CCCC4=O)C(=O)CCC3)c(Br)c1,–,> 100 µM
Nc1cc2c(cc1[N+](=O)[O-])[nH]c1c(-c3ccccc3)nccc12,–,> 67.8 µM
CCCOC(=O)N[C@H]1CCc2c(Br)c(OC)c(OC)c(OC)c2-c2ccc(SC)c(=O)cc21,0.0513 µM,> 100 µM
COc1ccccc1-c1cc2c3c(nc4ccccc42)C(=O)c2cccnc2-c3n1,6.85 µM,17.3 µM
COC(=O)Cc1c([C@@H]2Nc3ccccc3[C@H]2CC(=O)OC)[nH]c2ccccc12,–,> 100 µM
